Laboratory results: the supplement of paper PMC8728848
The list shows a part of the results.

Columns and labels:
Assay in all cases: glycan array binding signal (z-score within array); higher = stronger binding
Conditions in all cases: glycan notation: IUPAC condensed, linker removed
[1] = target: Gal(b1-4)GlcNAc(b1-3)Gal(b1-4)GlcNAc(b1-3)[Gal(b1-4)GlcNAc(b1-3)Gal(b1-4)GlcNAc(b1-6)]GalNAc
In short: (§1)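 Glycan array data came from 3228 arrays in the Consortium for Functional Glycomics database, and only arrays with an available protein sequence were kept. Glycan names were put into IUPAC-condensed notation, and columns mapping to the same glycan were averaged. The binding signal is a within-array Z-score, averaged across arrays of one protein sequence run at different concentrations or buffers and across linkers. A negative Z-score can be read as non-binding.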

[2] = target: Gal(b1-4)GlcNAc(b1-3)Gal(b1-4)GlcNAc(b1-6)[Gal(b1-3)]GalNAc
In short: as §1

[3] = target: Gal(b1-4)GlcNAc(b1-3)Gal(b1-4)[Fuc(a1-3)]GlcNAc(b1-3)Gal(b1-4)[Fuc(a1-3)]GlcNAc
In short: as §1

[4] = target: Gal(b1-4)GlcNAc(b1-3)GalNAc
In short: as §1

[5] = target: Gal(b1-4)GlcNAc(b1-3)[Fuc(a1-3)GlcNAc(b1-6)]Gal(b1-4)Glc
In short: as §1

[6] = target: Gal(b1-4)GlcNAc(b1-3)[Gal(b1-4)GlcNAc(b1-6)]Gal(b1-4)GlcNAc
In short: as §1

[7] = target: Gal(b1-4)GlcNAc(b1-3)[GlcNAc(b1-6)]Gal(b1-4)GlcNAc
In short: as §1

[8] = target: Gal(b1-4)GlcNAc(b1-6)Gal(b1-4)GlcNAc
In short: as §1

[9] = target: Gal(b1-4)GlcNAc(b1-6)GalNAc
In short: as §1

[10] = target: Gal(b1-4)GlcNAc(b1-6)[Gal(b1-3)]GalNAc
In short: as §1

[11] = target: Gal(b1-4)GlcNAc(b1-6)[Gal(b1-4)GlcNAc(b1-3)]GalNAc
In short: as §1

Gal(b1-4)GlcNAc6P = target: Gal(b1-4)GlcNAc6P
In short: as §1

Gal(b1-6)Gal = target: Gal(b1-6)Gal
In short: as §1

Gal3S(b1-3)GalNAc = target: Gal3S(b1-3)GalNAc
In short: as §1

Gal3S(b1-3)GlcNAc = target: Gal3S(b1-3)GlcNAc
In short: as §1

[12] = target: Gal3S(b1-3)[Fuc(a1-4)]GlcNAc
In short: as §1

Gal3S(b1-4)Glc = target: Gal3S(b1-4)Glc
In short: as §1

Gal3S(b1-4)Glc6S = target: Gal3S(b1-4)Glc6S
In short: as §1

Gal3S(b1-4)GlcNAc = target: Gal3S(b1-4)GlcNAc
In short: as §1

[13] = target: Gal3S(b1-4)[Fuc(a1-3)]Glc6S
In short: as §1

[14] = target: Gal3S(b1-4)[Fuc(a1-3)]GlcNAc
In short: as §1

[15] = target: Gal3S(b1-4)[Fuc(a1-3)]GlcNAc6S
In short: as §1

Gal3S4S(b1-4)GlcNAc = target: Gal3S4S(b1-4)GlcNAc
In short: as §1

Gal3S6S(b1-4)GlcNAc = target: Gal3S6S(b1-4)GlcNAc
In short: as §1

Gal3S6S(b1-4)GlcNAc6S = target: Gal3S6S(b1-4)GlcNAc6S
In short: as §1

Gal4S(b1-4)GlcNAc = target: Gal4S(b1-4)GlcNAc
In short: as §1

Gal4S6S(b1-4)GlcNAc = target: Gal4S6S(b1-4)GlcNAc
In short: as §1

Gal6P(b1-4)GlcNAc = target: Gal6P(b1-4)GlcNAc
In short: as §1

Gal6S(b1-3)GlcNAc = target: Gal6S(b1-3)GlcNAc
In short: as §1

Gal6S(b1-3)GlcNAc6S = target: Gal6S(b1-3)GlcNAc6S
In short: as §1

Gal6S(b1-4)Glc = target: Gal6S(b1-4)Glc
In short: as §1

Gal6S(b1-4)Glc6S = target: Gal6S(b1-4)Glc6S
In short: as §1

Gal6S(b1-4)GlcNAc = target: Gal6S(b1-4)GlcNAc
In short: as §1

Gal6S(b1-4)GlcNAc6S = target: Gal6S(b1-4)GlcNAc6S
In short: as §1

GalNAc(a1-3)Gal = target: GalNAc(a1-3)Gal
In short: as §1

GalNAc(a1-3)GalNAc = target: GalNAc(a1-3)GalNAc
In short: as §1

[16] = target: GalNAc(a1-3)GalNAc(b1-3)Gal(a1-4)Gal(b1-4)Glc
In short: as §1

[17] = target: GalNAc(a1-3)GalNAc(b1-3)Gal(a1-4)Gal(b1-4)GlcNAc
In short: as §1

GalNAc(b1-3)Gal = target: GalNAc(b1-3)Gal
In short: as §1

[18] = target: GalNAc(b1-3)Gal(a1-4)Gal(b1-4)GlcNAc
In short: as §1

[19] = target: GalNAc(b1-3)Gal(a1-4)Gal(b1-4)GlcNAc(b1-3)Gal(b1-4)Glc
In short: as §1

[20] = target: GalNAc(b1-3)Gal(a1-6)Gal(b1-4)Glc
In short: as §1

GalNAc(b1-3)GalNAc = target: GalNAc(b1-3)GalNAc
In short: as §1

GalNAc(b1-3)GlcNAc = target: GalNAc(b1-3)GlcNAc
In short: as §1

GalNAc(b1-4)Gal(b1-4)Glc = target: GalNAc(b1-4)Gal(b1-4)Glc
In short: as §1

B1: BC2LB (Burholderia cenocepacia), B4EH85_BURCJ (protein)
chain: MGSSHHHHHHSSGENLYFQGHMSQPFTHDDLYALLQLAGNDATAVQANGDQAVLDRMRQFMTAQLVEKLPQYDVFVDIATIPYSFDVGSWQNKVKTDAAGEVVACTVTWAGAPGVLPGAAAKFGVGAVVNYFSKATPH
- glycan array binding signal (z-score) [1]: -0.099
- glycan array binding signal (z-score) [2]: -0.02
- glycan array binding signal (z-score) [3]: -0.201
- glycan array binding signal (z-score) [4]: -0.332
- glycan array binding signal (z-score) [5]: -0.249
- glycan array binding signal (z-score) [6]: -0.157
- glycan array binding signal (z-score) [7]: -0.082
- glycan array binding signal (z-score) [8]: -0.153
- glycan array binding signal (z-score) [9]: -0.119
- glycan array binding signal (z-score) [10]: 0.261
- glycan array binding signal (z-score) [11]: -0.202
- glycan array binding signal (z-score) (Gal(b1-4)GlcNAc6P): -0.292
- glycan array binding signal (z-score) (Gal(b1-6)Gal): -0.317
- glycan array binding signal (z-score) (Gal3S(b1-3)GalNAc): -0.244
- glycan array binding signal (z-score) (Gal3S(b1-3)GlcNAc): -0.064
- glycan array binding signal (z-score) [12]: 0.995
- glycan array binding signal (z-score) (Gal3S(b1-4)Glc): 1.52
- glycan array binding signal (z-score) (Gal3S(b1-4)Glc6S): 0.282
- glycan array binding signal (z-score) (Gal3S(b1-4)GlcNAc): 0.173
- glycan array binding signal (z-score) [13]: -0.086
- glycan array binding signal (z-score) [14]: -0.25
- glycan array binding signal (z-score) [15]: 0.149
- glycan array binding signal (z-score) (Gal3S4S(b1-4)GlcNAc): -0.244
- glycan array binding signal (z-score) (Gal3S6S(b1-4)GlcNAc): -0.145
- glycan array binding signal (z-score) (Gal3S6S(b1-4)GlcNAc6S): -0.253
- glycan array binding signal (z-score) (Gal4S(b1-4)GlcNAc): -0.359
- glycan array binding signal (z-score) (Gal4S6S(b1-4)GlcNAc): -0.243
- glycan array binding signal (z-score) (Gal6P(b1-4)GlcNAc): -0.153
- glycan array binding signal (z-score) (Gal6S(b1-3)GlcNAc): -0.37
- glycan array binding signal (z-score) (Gal6S(b1-3)GlcNAc6S): -0.312
- glycan array binding signal (z-score) (Gal6S(b1-4)Glc): -0.305
- glycan array binding signal (z-score) (Gal6S(b1-4)Glc6S): -0.207
- glycan array binding signal (z-score) (Gal6S(b1-4)GlcNAc): -0.289
- glycan array binding signal (z-score) (Gal6S(b1-4)GlcNAc6S): -0.225
- glycan array binding signal (z-score) (GalNAc(a1-3)Gal): -0.199
- glycan array binding signal (z-score) (GalNAc(a1-3)GalNAc): -0.19
- glycan array binding signal (z-score) [16]: -0.232
- glycan array binding signal (z-score) [17]: -0.055
- glycan array binding signal (z-score) (GalNAc(b1-3)Gal): 1.32
- glycan array binding signal (z-score) [18]: -0.035
- glycan array binding signal (z-score) [19]: 0.037
- glycan array binding signal (z-score) [20]: 0.063
- glycan array binding signal (z-score) (GalNAc(b1-3)GalNAc): -0.258
- glycan array binding signal (z-score) (GalNAc(b1-3)GlcNAc): -0.254
- glycan array binding signal (z-score) (GalNAc(b1-4)Gal(b1-4)Glc): 0.361
